# Reference: PubChem BioAssay AID686979 (National Center for Advancing Translational Sciences (NCATS), 2013)
# Where “and” joins values, the source holds several entries; their conditions need not be identical. Identical values can stand only once. The whole screen tested about 420,000 compounds, of which about 50,000 (12%) were called active. Inconclusive results, whose numbers are uncertain, are shown with a selection of clear calls. Calls follow the shape of the dose curve; as a rule, active = well fitted inhibition curve with a large enough effect; inconclusive = small, poorly fitted or top-dose-only effect; inactive = flat fitted curve, though single readings scatter. Potencies of inconclusive entries are doubtful fits and often do not repeat.
# Experiment: qHTS for Inhibitors of human tyrosyl-DNA phosphodiesterase 1 (TDP1): qHTS in cells in presence of CPT; also: nearly all actives have a fitted effect of over 55% in size
# Conditions: chicken DT40 Tdp1-/-;hTDP1 cells + 20 nM CPT, ATP luminescence, 48 h; activity change, negative = growth inhibition: at 46.2 µM (top of the series)
# How it was run: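 Cell growth measured by CellTiter-Glo luminescence after a minimum 48 h, 37 C compound exposure with 20 nM CPT in Tdp1-knockout DT40 cells stably expressing hTDP1, seeded 400/well; qHTS titration format.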
# % is scaled to controls: 0 for no effect and ±100 for the full control effect; potency is read from the fitted curve at half-maximal effect; tags tell the direction and shape of the fitted curve.
Compound,Potency,"activity change, negative = growth inhibition"
CC(C)Nc1ccc(-c2nc(-c3ccco3)no2)cc1[N+](=O)[O-],"inconclusive: 29.1 µM [inhibitor, single point]",
COc1ccc(Cl)cc1NC(=O)Nc1cc(C)on1,"inconclusive: 8.2 µM [inhibitor, partial curve, poor fit]",
Cc1ccc(C2c3[nH]c4ccccc4c3CCN2C(=O)c2cccc(C)c2)cc1 (stereo not drawn),"inconclusive: 29.1 µM [inhibitor, single point]",
CCN(CC)c1ccc(/C=N/NC(=O)c2ccoc2C)c(O)c1,active: 13 µM,
CCC(C)(C)n1nnnc1CN1CCc2ccccc21,inactive,
CCCCCCCCN1C(=O)[C@H](CC(=O)N2CCC(c3ccccc3)CC2)C[C@@]2(C(=O)OC)CC(C)(C)CC=C12,"inconclusive: 18.4 µM [inhibitor, single point]",
O=S(=O)(Nc1nc2c(s1)CCCC2)c1ccc2ccccc2c1,"inconclusive: 16.4 µM [inhibitor, single point]",
Cc1ccccc1C(=O)NCCCCc1ccccc1,inactive,
Cc1cccc(OCC(=O)Nc2ccc(Cl)c(-c3nc4ncccc4o3)c2)c1C,active: 18.4 µM,
CCCC(C(=O)n1nc(C)cc1C)C(NS(=O)(=O)c1ccc(C)cc1)c1ccccc1 (stereo not drawn),active: 16.4 µM,
CCOP(=O)(c1ccccc1)c1nc(-c2ccccc2C)oc1N1CCCCC1 (stereo not drawn),active: 13 µM,
Cc1ccccc1-c1noc(-c2ccc(O)cc2)n1,"inconclusive: 29.1 µM [inhibitor, single point]",
COc1ccc(C2=Cc3ccc(OC(C)=O)cc3OC2)cc1,"inconclusive: 6.51 µM [inhibitor, full curve]",
CC(=O)N1CCOc2ccc(S(=O)(=O)N(C)c3cccc(C)c3)cc21,inactive,
O=C(NCC1CCCO1)c1ccccc1NC(=O)c1cccc2ccccc12 (stereo not drawn),"inconclusive: 29.1 µM [inhibitor, single point]",
Cc1cc(C)nc(NC(=O)C(c2ccccc2)c2ccccc2)c1,"inconclusive: 16.4 µM [inhibitor, single point]",
OC(c1ccccc1)(c1ccccc1)C1CCN(C(=S)Nc2ccc(F)cc2)CC1,"inconclusive: 16.4 µM [inhibitor, single point]",
CCN(CC)CCCNC(=O)c1ccc(S(=O)(=O)Nc2ccc(C)c(C)c2)cc1,"inconclusive: 18.4 µM [inhibitor, partial curve]",
CC(C)c1ccc(NS(=O)(=O)c2ccc(Cl)nc2)cc1,inactive,
O=c1c2ccccc2oc2c1ccc1ccccc12,,inconclusive: -30.3% [inhibitor]
CCCn1c2c(c(=N)c3c1CCC3)CCCC2,active: 9.2 µM,
COc1cc2cc(CNc3ccc(C)cc3)c(=O)n(CC(=O)Nc3ccc(F)cc3F)c2cc1OC,"inconclusive: 18.4 µM [inhibitor, single point]",
CC(C)NC(=O)CN1C(=O)COc2ccc(S(=O)(=O)N3CCCCCC3)cc21,inactive,
O=C(CSC1=NCCS1)NCc1ccco1,active: 13 µM,
O=C(NCc1cccs1)c1ccc(-c2ccc(F)c(F)c2)c2ccoc12,active: 11.6 µM,

Compound,Potency,"activity change, negative = growth inhibition"
COc1ccc(-c2nnn(CC(=O)N(CC(=O)NC3CCCC3)Cc3ccco3)n2)cc1OC,inactive,
CCC(Sc1ncnc2c1c(-c1ccccc1)cn2-c1ccc(OC)cc1)C(=O)OC (stereo not drawn),"inconclusive: 29.1 µM [inhibitor, single point]",
COc1cc(/C=C/c2cc(OC(C)=O)c3ccccc3n2)c(OC(C)=O)c([N+](=O)[O-])c1,"inconclusive: 23.1 µM [inhibitor, partial curve, poor fit]",
Cc1cccc(NC(=O)c2nnn(CC(=O)Nc3ccc(C(C)C)cc3)c2N)c1C,"inconclusive: 10.3 µM [inhibitor, partial curve]",
O=C(c1ccc(N2CCN(C(=O)c3ccc(F)c(F)c3)CC2)cc1)c1cccc(F)c1,active: 23.1 µM,
NC(=O)CSc1ccc(S(=O)(=O)N2CCCCC2)cn1,inactive,
CC(C)C[C@H]1CN=C(N(C)C)N1CCCCc1ccccc1,active: 5.17 µM,
Cn1nccc1C(=O)Nc1sc2c(c1C(N)=O)CCCC2,"inconclusive: 29.1 µM [inhibitor, single point]",
CC(NC(=O)Nc1ccc(Cl)cc1)c1ccccc1 (stereo not drawn),"inconclusive: 29.1 µM [inhibitor, single point]",
O=C(c1cc(-c2ccc(Br)cc2)nc2ccccc12)N1CCN(c2ccccc2O)CC1,"inconclusive: 20.6 µM [inhibitor, single point]",
Cc1nc(Oc2ccc(F)cc2Cl)c2oc3ccccc3c2n1,"inconclusive: 29.1 µM [inhibitor, single point]",
CCC(=O)N1CCc2cc(Br)cc(S(=O)(=O)CCC(=O)NCc3ccc(Cl)cc3)c21,"inconclusive: 23.1 µM [inhibitor, single point]",
COc1cccc(N=Cc2c(O)c3ccccc3oc2=O)c1,inactive,
COc1ccc(N(CC(=O)N2CC=C(c3ccccc3)CC2)S(=O)(=O)c2c(C)noc2C)cc1,"inconclusive: 23.1 µM [inhibitor, single point]",
Cc1cc(=O)oc2cc(OCc3ccc(C(=O)OCC(=O)Nc4ccc(N(C)C)cc4)cc3)ccc12,inactive,
COc1cc(OC)c(/C=C/c2ccncn2)c(OC)c1,"inconclusive: 35.5 µM [inhibitor, single point]",
COC(=O)C[C@H]1C=C[C@@H](NC(=O)Cc2cccnc2)[C@@H](CO)O1,inactive,
COc1ccccc1C1CCN(Cc2ccc3ccccc3c2)CC1,"inconclusive: 25.9 µM [inhibitor, partial curve, poor fit]",
COc1ccc(-c2nc(-c3ccc4c(c3)OCO4)[nH]c2-c2ccc(OC)cc2)cc1,"inconclusive: 29.1 µM [inhibitor, single point]",
Nc1ccc2nn(-c3cccc4ccccc34)nc2c1,active: 11.6 µM,
CCOc1cc(Br)c(CC(=O)NC2CCCCCC2)cc1OCC,"inconclusive: 29.1 µM [inhibitor, single point]",
Nc1c(C(=O)NCc2ccc3c(c2)OCO3)nnn1Cc1ccc(Br)cc1,inactive,
CCOc1ccccc1NC(=O)CN(C)S(=O)(=O)c1ccc2nc(C)sc2c1,inactive,
CCCCN(C)c1c(N2CCC(C(=O)OCC)CC2)c(=O)c1=O,inactive,
CC(C)(C)NC(=O)C[C@H]1C[C@H](C(=O)N2CCOCC2)[C@@]2(CCC3CCCC3)c3[nH]c4ccc(Cl)cc4c3CCN2C1=O,"inconclusive: 20.6 µM [inhibitor, single point]",

Compound,Potency,"activity change, negative = growth inhibition"
FC(F)(F)c1ccccc1-c1nccc(NCc2cccs2)n1,"inconclusive: 29.1 µM [inhibitor, single point]",
COc1cc(C(=O)NNC(=O)c2n[nH]c3ccccc23)cc(OC)c1OC,inactive,
CCOc1ccc(S(=O)(=O)N2CCN(Cc3ccco3)CC2)cc1,"inconclusive: 18.4 µM [inhibitor, single point]",
CC(=O)N(c1ccccc1)c1ccccc1[N+](=O)[O-],"inconclusive: 20.6 µM [inhibitor, single point]",
CCc1ccccc1NNC(=O)c1snnc1C,inactive,
CCOC(=O)c1cc(CC)sc1NC(=O)c1ccc2c(c1)OCCO2,"inconclusive: 18.4 µM [inhibitor, single point]",
CCc1c(O)nc(SCC(=O)N2CCCCC2)n(-c2ccccc2C)c1=O,inactive,
CC(C)CC(N)c1csc(Nc2ccc(C(F)(F)F)cn2)n1 (stereo not drawn),active: 11.6 µM,
CC(C)Oc1ccc(C(=O)N(Cc2ccco2)c2ccccn2)cc1,inactive,
CCOc1ccc(CCNC(=O)c2sc3nc4n(c(=O)c3c2C)CCC4)cc1,inactive,
COc1ccc(OC)c(-c2csc(NC(=O)Cc3ccccc3)n2)c1,"inconclusive: 29.1 µM [inhibitor, single point]",
O=C(Nc1sc2c(c1C(=O)NCc1ccco1)CCCC2)c1cc(=O)c2ccccc2o1,"inconclusive: 18.4 µM [inhibitor, single point]",
Oc1ccccc1N1CCN(C(=S)NCc2ccccc2)CC1,"inconclusive: 23.1 µM [inhibitor, single point]",
COc1ccc(Br)cc1CNC(=O)c1cc2n(n1)CCCN(Cc1ccc(C)cc1)C2=O,"inconclusive: 25.9 µM [inhibitor, single point]",
Cc1ccc(SCc2ccc(C(=O)NCc3ccncc3)cc2)cc1,"inconclusive: 29.1 µM [inhibitor, single point]",
CNC(=S)N/N=C/c1ccc(-c2ccc(Cl)c([N+](=O)[O-])c2)o1,active: 8.2 µM,
O=C(Nc1nc2ccc(S(=O)(=O)N3CCCC3)cc2s1)C1CCCCC1,active: 2.59 µM,
CCOc1ccccc1NC(=O)NC(=O)N(C)S(=O)(=O)c1ccc(C)cc1,inactive,
Cc1ccc(NC(=S)N2CCN(CCN3C(=O)c4cccc5cccc(c45)C3=O)CC2)cc1,"inconclusive: 14.6 µM [inhibitor, partial curve]",
COCCN1C=C2C(=O)C(C)(OC(=O)CCc3ccccc3)C(=O)C=C2C=C1c1ccc(C#N)cc1 (stereo not drawn),"inconclusive: 25.9 µM [inhibitor, single point]",
CCCCCCCC/C=C/CCCCCCCCOP(=O)([O-])OCC[N+](C)(C)C,"inconclusive: 29.1 µM [inhibitor, single point]",
Cn1c(=O)c(C(=O)NCc2ccccc2)c(O)c2ccccc21,"inconclusive: 29.1 µM [inhibitor, single point]",
CCCCCCCCCCCCN1[C@@H](CC(=O)OC)c2cc(C(F)(F)F)ccc2S1(=O)=O,"inconclusive: 28.2 µM [inhibitor, single point] and inconclusive: 29.1 µM [inhibitor, single point]",
